Out of some 410,000 compounds screened, about 530 (0.13%) were called active. Inconclusive means that the source gave no clear call. Such entries were picked first, then a sample of the others. Calls come from the whole dose curve; as a rule, active = well fitted inhibition curve with a large enough effect; inconclusive = small, poorly fitted or top-dose-only effect, or another doubt; inactive = no such curve, though single readings can be large or run the other way. Potencies beside an inconclusive call are fits to weak or partial responses and may not hold up.
Experiment: qHTS of GLP-1 Receptor Inverse Agonists: Cytotox Screen
Settings: HEK293 cAMP-luciferase reporter cells, luminescence, 24 h; activity change, negative = inhibition: at 38.3 µM (top of the series)
How it was run: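 Compound-treated cells are incubated 24 hr at 37 deg C under 5% CO2 after a 12 hour attachment period, then luciferase detection reagent is added and luminescence is measured following 12 min at room temperature; lowered signal indicates toxicity.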
% is set by controls: 0 for no effect and ±100 for the full control effect; potency is the fitted concentration of half-maximal effect.

SMILES	Potency	activity change, negative = inhibition
Cc1ccc(OCCCCCCN2CCNCC2)c(Br)c1	inconclusive: 22.4 µM [inhibitor, single point]	–
Cc1ccc(-c2nc(CSCC(=O)NC3CCN(Cc4ccccc4)CC3)c(C)o2)cc1	inconclusive: 10 µM [inhibitor, single point]	–
Cc1cccc(C)c1OCC(=O)Nc1cccc(-c2nnc(-c3ccccc3)o2)c1	inconclusive: 31.6 µM [inhibitor, single point]	–
CCOC(=O)c1ccc(NC(=O)CCNS(=O)(=O)c2cccs2)cc1	inconclusive: 28.2 µM [inhibitor, single point]	–
COc1cc2c(cc1OC)C(COc1ccc3c(C)cc(=O)oc3c1)N(C(=O)c1cccc(OC)c1OC)CC2 (configuration not stated)	–	inactive: 0.329%
CC(C)=C[C@@H]1C[C@H](C)[C@H]2CC[C@H](C)c3c(O[C@@H]4O[C@@H](C)[C@@H](O)[C@@H](O)[C@@H]4O)c(O)c(C)c1c32	inconclusive: 28.2 µM [inhibitor, single point]	–
CC1=CC2=NC(=O)/C(=C\c3cccn3CCOc3cc(C)cc(C)c3)C(=N)N2O1	inconclusive: 28.2 µM [inhibitor, single point]	–
CC(=O)O[C@@H]1[C@@]2(C)O[C@H]2CC[C@]23O[C@H]2[C@H](OC3=O)C2=C(C)C(=O)O[C@@]21O	–	inactive: 2.38%
O=C(NCCCn1ccnc1)C1CCCN(S(=O)(=O)c2ccc(F)cc2)C1 (configuration not stated)	inconclusive: 0.708 µM [inhibitor, full curve, poor fit]	–
COCCCNC(=S)N/N=C/c1ccc2c(c1)OCO2	inconclusive: 12.6 µM [inhibitor, partial curve, poor fit]	–
CN(CCCNC(=O)c1ccc(/C=N/O)nc1)CCCN(C)Cc1ccccc1	inconclusive: 7.08 µM [inhibitor, partial curve, poor fit]	–
CC(=O)N1CCc2c(sc3nc(SCC(N)=O)n(-c4ccc(F)c(Cl)c4)c(=O)c23)C1	–	inactive: -0.816%
COc1ccc(NC(=S)NC2CC3CCC2C3)c(OC)c1 (configuration not stated)	inconclusive: 28.2 µM [inhibitor, single point]	–
Cc1c(C(c2ccc(O)cc2)c2c(C)n(C)n(-c3ccccc3)c2=O)c(=O)n(-c2ccccc2)n1C	inconclusive: 28.2 µM [inhibitor, single point]	–
Fc1ccc(CNC(=S)NC2CCCCC2)cc1	inconclusive: 10 µM [inhibitor, single point]	–
COc1ccccc1CNc1ccc(-c2nc(-c3ccccn3)no2)cc1[N+](=O)[O-]	–	inactive: 3%
Cc1cccc(CCNC(=O)C2CCC(CNS(=O)(=O)c3c(C)cc(C)cc3C)CC2)c1 (configuration not stated)	–	inactive: -10.7%
Cc1ccc(C(=O)c2cc([N+](=O)[O-])ccc2N2CCCCC2)cc1C	inconclusive: 0.794 µM [inhibitor, full curve, poor fit]	–
COc1ccc(C(=O)NC(=S)N2CCCCC2)cc1	inconclusive: 0.501 µM [inhibitor, full curve, poor fit]	–
CCn1c(=O)c(C(=O)CN(C)Cc2ccc(F)cc2)c(N)n(Cc2ccccc2)c1=O	–	inactive: -17%
CN(C)C1CCCCC=CC(=O)NC1 (configuration not stated)	–	inactive: 0.579%
CCN(CC)C(=O)C1CC(=O)OC1(C)C (configuration not stated)	–	inactive: 5.69%
CCC(C(=O)NCc1ccco1)N(C(=O)CNS(=O)(=O)c1ccc(C)cc1)c1ccccc1OC (configuration not stated)	–	inactive: 1.15%

SMILES	Potency	activity change, negative = inhibition
COc1ccc2nc(/N=C(\N)NC(=O)N3c4ccccc4Sc4ccccc43)nc(C)c2c1	–	inactive: -2.39%
CCOc1ccc(-c2c(C)nn3c(C)c(C(=O)NCc4cccc(OC)c4)cnc23)cc1OCC	–	inactive: -0.483%
Cc1ccc2[nH]c(=O)c(CN(CCN3CCOCC3)C(=O)Nc3ccc(F)cc3)cc2c1	inconclusive: 11.2 µM [inhibitor, single point]	–
CCN1CCN(c2ncc3c(n2)CC(c2cc(OC)c(OC)c(OC)c2)CC3=O)CC1 (configuration not stated)	inconclusive: 1.26 µM [inhibitor, full curve, poor fit]	–
Cc1ccc(C(=O)C(C(=O)/C=C/c2ccccc2)=C2SCCCS2)cc1	inconclusive: 12.6 µM [inhibitor, partial curve, poor fit]	–
CN1CCCN(C(c2ccccc2)c2ccc(Cl)cc2)CC1 (configuration not stated)	inconclusive: 5.62 µM [inhibitor, full curve, poor fit]	–
CC1=Nc2ccccc2/C1=C/c1sc(=N)n(-c2nccs2)c1O	inconclusive: 2.24 µM [inhibitor, full curve, poor fit]	–
Cc1nc(N/N=C/c2ccc(O)cc2)c2cnn(-c3ccccc3)c2n1	–	inactive: -18.3%
CCOCCn1c(N2CCN(c3ccc(OC)cc3)CC2)nc2c1c(=O)[nH]c(=O)n2C	inconclusive: 28.2 µM [inhibitor, single point]	–
Cc1ccc(-n2ncc(Br)c(Br)c2=O)cc1	inconclusive: 11.2 µM [inhibitor, single point]	–
CCc1ccc(Nc2n[n+](-c3ccccc3)c(-c3c(Cl)cccc3Cl)s2)cc1	active: 7.94 µM	–
Cc1cccc(-n2c(SCC(N)=O)nc3c(c2=O)C2(CCCC2)Cc2ccccc2-3)c1	inconclusive: 28.2 µM [inhibitor, single point]	–
CC1Cc2ccccc2N1C(=O)COC(=O)c1c2c(nc3ccccc13)CCCCC2 (configuration not stated)	inconclusive: 28.2 µM [inhibitor, single point]	–
CC(=O)NC(c1ccccc1)c1cc([N+](=O)[O-])c2cccnc2c1O (configuration not stated)	inconclusive: 6.31 µM [inhibitor, partial curve]	–
O=C1NCCCC2c3c(cc(Br)c(O)c3Br)OC12N1CCOCC1 (configuration not stated)	–	inactive: -5.58%
c1ccc(COc2ccc(-c3csnn3)cc2)cc1	–	inactive: 1.78%
CCOC(=O)c1cc(-c2ccccc2)nc2c(O)cccc12	inconclusive: 28.2 µM [inhibitor, single point]	–
Oc1ccc(NCc2cccs2)cc1	inconclusive: 25.1 µM [inhibitor, single point]	–
CCOC(=O)c1ccc(NC(=S)NCCc2ccc(OC)c(OC)c2)cc1	inconclusive: 28.2 µM [inhibitor, single point]	–
Cc1cc(Br)ccc1NC(=O)CNC(=O)Cn1ncc(Cl)c(Cl)c1=O	inconclusive: 2.51 µM [inhibitor, partial curve, poor fit]	–
COC(=O)c1cccc(NS(=O)(=O)c2ccc(OC)cc2)c1C	inconclusive: 10 µM [inhibitor, partial curve]	–
O=C(CCCCn1c(=O)c2ccccc2n(Cc2ccccc2)c1=O)NC1CCN(Cc2ccccc2)CC1	inconclusive: 7.08 µM [inhibitor, partial curve, poor fit]	–
Cc1ccccc1Oc1cc(-n2ncc(Cl)c(Cl)c2=O)ncn1	active: 3.16 µM	–

SMILES	Potency	activity change, negative = inhibition
CCCc1cc2c(=O)c(-c3ccccn3)coc2cc1OC	–	inactive: 11.9%
CCOc1ccc(C(=O)Nc2cccc(C(=O)O)c2C)cc1Cl	–	inactive: -8.46%
Cc1ccccc1C(=O)Nc1nc(-c2ccc(Br)cc2)ns1	–	inactive: -20.5%
CCN(CC)C(=O)Cn1c(=O)n(Cc2ccc(F)cc2)c(=O)c2sccc21	–	inactive: 1.85%
S=C1NNC2(NN1)C1CC3CC(C1)CC2C3	inconclusive: 28.2 µM [inhibitor, single point]	–
CCN(CC)CCNC(=O)c1ccc(NC(=O)c2ccc(C(=O)c3ccccc3)cc2)cc1	inconclusive: 28.2 µM [inhibitor, single point]	–
O=C(O)CC1(CC(=O)Nc2cc3ccccc3cn2)CCCCC1	inconclusive: 28.2 µM [inhibitor, single point]	–
COc1cccc(NC(=O)Nc2ccc3nc(N4CCN(C)CC4)cc(C)c3c2)c1	inconclusive: 28.2 µM [inhibitor, single point]	–
O=C(NC(=S)Nc1ccc(NC(=O)c2cccs2)cc1)c1ccc([N+](=O)[O-])cc1	inconclusive: 20 µM [inhibitor, single point]	–
COc1cc(C(C(=O)NC2CCCCC2)N(C(=O)Cc2c[nH]c3ccccc23)c2ccc(C)cc2)cc(OC)c1OC (configuration not stated)	inconclusive: 28.2 µM [inhibitor, single point]	–
Cc1ccc(O)c(C(=O)c2cnc3c(c2)CN(C)C(=O)N3)c1	inconclusive: 11.2 µM [inhibitor, single point]	–
CCc1cc(C(=O)c2ccc(C)cc2)c(NC(=O)CCl)s1	inconclusive: 12.6 µM [inhibitor, single point]	–
Cc1c(NC(=O)c2cc(-n3cnnc3)ccc2Cl)cccc1-c1nc2ccccc2s1	inconclusive: 28.2 µM [inhibitor, single point]	–
COc1cc(CN2CCC(C(=O)NC(c3ccc(-c4ccccc4)cc3)c3cnccn3)CC2)cc(OC)c1 (configuration not stated)	inconclusive: 28.2 µM [inhibitor, single point]	–
Cc1nn(-c2nc3ccccc3[nH]2)c(N)c1-c1ccc(Cl)cc1	inconclusive: 22.4 µM [inhibitor, single point]	–
COC(=O)N1C(=O)[C@](c2ccc(Cl)cc2)(C(C)C)N1C(=O)OC	inconclusive: 12.6 µM [inhibitor, single point]	–
CN=Cc1sc2ccccc2c1O	inconclusive: 2.51 µM [inhibitor, full curve]	–
N#C/C(=C/c1ccccc1[N+](=O)[O-])c1nc(C2CC2)cs1	–	inactive: -22.1%
Cc1ccc(-n2nc3c(=O)n(CC(=O)c4ccc(F)cc4)nc(C)c3c2C)cc1	–	inactive: 24%
CCCCCCCCCCOC(=O)Cn1c(COc2ccccc2)[n+](C)c2ccccc21	inconclusive: 28.2 µM [inhibitor, single point]	–
COC(=O)CC1(C(=O)OC)Oc2ccc(Br)cc2C(=O)N1c1cccc(Cl)c1Cl (configuration not stated)	inconclusive: 6.31 µM [inhibitor, partial curve]	–
